Results: the supplement of paper PMC10126150
Sequences with one replicate were seen in a single cluster, so their values are uncertain.

Test system: ATP
Experiment: switch fluorescence ratio, 500 uM ATP over buffer (Cy3 cluster intensity, sum of 5 cycles each) (fold (ratio)); higher = stronger signal-on switching upon ATP binding; sequences stand for … in TCGTCGGCAGCGTCAGATGTGTATAAGAGACAGTTTTTTTTTTTTTTTTTTTTTTTTT…TC
Conditions: aptamer strand: ATP DNA aptamer (quencher-CACCTGGGGGAGTATTGCGGAGGAAGG + anchor), 100 nM annealed; ATP concentration: 500 uM; one replicate
In short: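 Switching-strand clusters labelled with Cy3 on a modified Illumina MiSeq flow-cell were annealed to 100 nM quencher-labelled ATP aptamer, imaged in selection buffer, and re-imaged after 15 min with 500 uM ATP at 22 °C. This was done over five cycles with NaOH stripping and re-annealing in between. The fluorescence ratio is summed target-cycle over summed buffer-cycle Cy3 intensity per cluster, averaged per switch-domain sequence, excluding clusters outside 100-1000 RFU.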
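Further: ATP exposure 15 min at 22 °C before imaging.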

Sequence	switch fluorescence ratio
GGGTAAGTTA	1.02
TGGTGTTTAG	0.995
ATAGGGTGGA	1.02
TAGGCGCTTG	0.979
GGTGCTACTG	1.05
TTGCCTTAGC	0.997
GGGTAAATTC	0.976
ACGATGAGCG	1.01
AAGTAGTATG	0.995
TCTGGGCAT	1.48
AGATGCGTAC	1.28
AACGTCTTAC	1.18
GTGGACATGG	0.949
CTTTAGAGGA	0.998
TCTTCCTTAC	2.64
TCCGGATTG	1.04
CAAGCCCGGC	1.01
ATTTCTCTA	1.04
TGGTTTCATG	0.986
AGGTGCACGG	1.03
GCGGATCCTT	1.02
CCGCATGTT	4.41
CTAGCAGGAT	1.03

Sequence	switch fluorescence ratio
GTGAGAG	0.989
CAGAGCGCCT	1.03
GACGATTCT	1.01
AACTAGCCTT	1.02
AGATCTAAAT	1
TGAGAGGATA	1.03
CGGGGCCAGT	0.982
CCGCACTAAA	5.31
AATAGGGCAC	1.01
GATCGAAAGC	1.04
CAAATGACTA	1.04
TTCGATTGCC	0.954
AGTGGAGACC	1.01
AGGCGGTCCG	1.01
CTCCTAATCC	2.21
TGCTGAATCC	1.02
TGTCAGAGGT	1.01
GCGTGGAACG	0.982
GGGCGAACAC	1.01
CGAGAGATCA	1.02
TAGGGTGCC	1.01
AGTGAGGACT	0.982
CTAGTGCAAG	1.03

Sequence	switch fluorescence ratio
GATAAGTCCG	0.985
AGGGTCTCTC	0.984
GCTGGCTTTA	0.961
CTGGCGAGAA	1
TGACGGATTG	0.944
GGGGCGGTTC	0.995
CGTAGACCCG	1.03
ATGCAGTGCA	1.04
TCTGAATTA	1.02
TAGAAATCGT	1.06
GATGAACAGG	1.04
CTAAGAATGA	0.979
TGAACGGGAA	1.05
TTAGGTACTT	1.07
TCTTACGTA	1.09
GAAGCAGGCG	1.05
ATTGTATGCA	1.01
TATAGTCCTA	0.989
GGCCCCGCGG	0.978
AGCATCCGCT	1.06
TGGCACCTGC	0.997
TGGTAATTCC	1.05
GCGTTTTAG	0.967

Sequence	switch fluorescence ratio
GCTTATCACC	1
TAGGAAGAAG	0.999
TTCTAGCACT	1.1
AAGCTTCCGT	1.02
AACATACATA	1.22
TACGGGTGAG	0.985
CTAGCTATCA	1.03
TATCCTTATG	1.03
TTTAAATACC	1.07
CGAATGCGGC	1.07
TCCGGAGCAG	1.93
ACGGAAAGTC	1.02
AGGATGCCCA	0.991
CGAAGTGGAT	0.97
CCACGCTTTG	1.07
TAACGATCAA	1.05
TAAAGACGCT	1
TCGTTCCTAG	1.02
TGTGACGAGT	0.972
CACGGTTGTA	0.977
CTAGCAGTAT	1.31
AGATCCGAAG	1.03
TTGGGGACTA	1.03

Sequence	switch fluorescence ratio
ATGCCGAGTA	0.977
GTCATTGTCA	1.02
CAGACTAGGT	1.04
TTAATCCTAA	1.01
GTTCCTATC	1
ATAAGAAGG	1.01
CTCCGTGCAT	6.48
GGCGGCTCAC	1.04
ATTAGCAGGA	0.978
GATCGCAGTC	2.85
TACGGATGTT	0.984
TAGCAGTCCT	1.07
ATGGTTCCGG	1.02
GGTATACTCG	1.07
CGGCAGCTCG	0.965
GTTTTACGGG	0.998
CCAACAGGG	1.59
ATCCGCGCCC	3.29
TACAGAATAT	0.993
TCGTCATGAT	0.987
AATACATTTT	1.01
TTTAGCAAAG	1.07
GGGGCTCCGT	1.02

Sequence	switch fluorescence ratio
AATCCCTTT	0.975
CATACATTGC	1.04
GGGATTTCTC	0.975
TGGGGCGGGC	0.992
TTAGCAGTGG	1.14
TTGCGACTGT	0.995
TTTTAAAAGC	0.979
ACCCGAGGGG	1.11
TATAACTTGC	1.05
AAGTGGCC	0.955
ACATTGTATC	1.02
CTATCTGACC	0.999
GATGGTTGTA	1.02
TGGACCCGG	1.07
GCTTGGA	1.02
CGAAGTAGCT	1.03
GTATCGGGGG	1.01
CGAGAAGGAT	1.04
GAACCCGGGT	0.918
ACTTCGGTGT	1.02
ATATTCGGAT	0.973
AAAGATGCCT	1.02
TGTTGTAGTA	1.06

Sequence	switch fluorescence ratio
AAGAGCGACA	0.981
CGGTTGAGGA	0.977
GTAGTTATGT	0.972
CGGGAAGG	0.989
GCACCCTTT	1.03
TCAATAACGA	1.02
AACGGAAGCT	1.06
CAGGCTCAAA	1
GTGCTACCTG	0.975
AGGGAG	1.02
TCTCGGGCTA	1.08
TTCGTTGCAT	0.999
CCAATCGTGT	1.04
ATACTCGCAC	1.6
TAGTAGTCCT	1.01
CTGGGTGTT	1.08
AATCCGATTT	1.03
AAATGCCGAC	0.977
ACGACGCGTG	1.08
TCGACACCTG	1.08
